From PMC8428793
Results are given in words; binding and its absence hold for the method and conditions named. Some results given as binding are weak or reduced against the parent protein; the word gives no strength. Where a sequence is shown, tags or fusion partners need not be part of it.

The chains behind the UniProt entries cited, without tags or fusion partners.
UniProt Q9UK41: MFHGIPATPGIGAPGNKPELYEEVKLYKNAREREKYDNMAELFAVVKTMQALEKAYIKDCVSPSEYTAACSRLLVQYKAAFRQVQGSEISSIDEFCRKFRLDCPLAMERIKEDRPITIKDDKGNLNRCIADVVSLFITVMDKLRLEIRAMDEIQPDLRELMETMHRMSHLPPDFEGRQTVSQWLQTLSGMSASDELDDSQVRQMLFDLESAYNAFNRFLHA

Biological target: T1, AKTIP fused to the Gal4 DNA-binding domain (human) (UniProt Q9H8T0)
T1 sequence: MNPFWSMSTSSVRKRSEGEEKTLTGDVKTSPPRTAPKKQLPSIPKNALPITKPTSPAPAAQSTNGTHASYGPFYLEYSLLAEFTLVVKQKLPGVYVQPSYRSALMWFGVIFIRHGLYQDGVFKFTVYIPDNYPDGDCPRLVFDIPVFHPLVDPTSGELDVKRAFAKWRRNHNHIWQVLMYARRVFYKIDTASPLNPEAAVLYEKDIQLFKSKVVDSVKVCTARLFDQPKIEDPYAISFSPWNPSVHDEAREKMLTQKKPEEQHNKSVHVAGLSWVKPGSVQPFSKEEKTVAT
Experiment: two-hybrid; yeast Y190 co-transformed with AKTIP-Gal4 DNA-binding domain (pGBKT7) and VP16 activation domain fusions (pHB18); liquid beta-galactosidase (LacZ) assay

## VPS28 fused to the VP16 activation domain (from UniProt Q9UK41 1-221)
  binding: binds
